# Assay results reported in the supplement of paper PMC10338343.
# ± gives the standard deviation. The entries are a selection whose mix differs from that of the whole data set.
# Tested on: MIWI (PIWIL1) piRISC loaded with piRNA #1 (30 nt)
# Assay: pre-steady-state target cleavage rate (min^-1); MIWI and MILI are mouse PIWI proteins and EfPiwi is from a freshwater sponge; tags in brackets are library labels; higher = faster piRNA-guided slicing of the target
# Conditions: guide: piRNA #1 5'p-UGAGGUAGUAGGUUGUAUAGUAUCCAGAGG; auxiliary factor: 500 nM mouse GTSF1
# Summary of the method: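 The method was Cleave-'n-Seq, in which uncleaved targets from a transcribed, DNA-blocked target RNA library were sequenced after exposure to active affinity-purified piRISC carrying one synthetic guide, with or without GTSF1 partner protein. Reactions contained 0.1 nM library, 1 nM piRISC and, where present, 500 nM GTSF1 in HEPES–potassium acetate buffer at 33 °C for 0–8 or 0–960 min. Reads were normalised to depth and to weakly complementary targets, three trials were pooled, and k3 was capped at 0.0001 min^-1. The pre-steady-state cleavage rate came from a burst-and-steady-state fit.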
row,Sequence,pre-steady-state target cleavage rate
1,GGAGAGGAUACUAUUCAACCUACAACCUCA,0.495 ± 0.044
2,GCUCUGGAUACUAUACGAACCUACUACCUCA,0.0084 ± 0.0051
3,GGAGACCUAUCUAAACAACCUACUUCCUCA,0.00343 ± 0.0029
4,GGAAUGGAUACUAUACAACCUACUACCUCA,1.86 ± 0.099
5,GGAGUGGAUACUAUACAACGUACUACCACA,0.215 ± 0.037
6,GGUGUGGAUACUAUACAACCUACUACCUCA,1.8 ± 0.092
7,GGAGACCAUACUAUUCAACCUUCUACCUCA,0.423 ± 0.028
8,CCUCUGGAUACUGAUACAACCUACUACCUCA,1.52 ± 0.089
9,GGAGUGGAUACUAUACAACGUACAACCUCA,0.411 ± 0.04
10,GGAGACCUAACUAUACAUGCUACUACCUCA,0.119 ± 0.021
11,GGAGAGGAUGCUAUACAACCUACUACCUCA,1.42 ± 0.087
12,GGUCUGGAUUCUAUUCAACCUACUACCUCA,1.52 ± 0.1
13,GGAGACGUUACUAUACAACGUACUACCUCA,0.664 ± 0.042
14,GGAGACCAUUCUAUAGAACCUACUACCUCA,0.863 ± 0.076
15,GGAGACCUAUGAUAAGUACCUACUACCUCA,< 0.0001
16,GGACUGGAUACUAAAGAACCUACUACCUCA,1.22 ± 0.077
17,GGUCUGGAUACUAUACAACGUACUACGUCA,0.478 ± 0.074
18,GCUCUGGAUACUAAACAACCUACUUCCUCA,0.502 ± 0.033
19,CCUCUGGAUACCAUACAACCUACUACCUCA,1.09 ± 0.081
20,GCUCUGGAAACUAUACAACCUUCUACCUCA,0.738 ± 0.047

row,Sequence,pre-steady-state target cleavage rate
1,GGAGACCUUACAAUACAACCUACUUCCUCA,0.0137 ± 0.0043
2,CCUCUGGAUACUAUACAAGGUACUACCUCA,0.426 ± 0.033
3,GGAGAGGAUACUUUACAACCUUCUACCUCA,0.485 ± 0.024
4,GGACUGGUUACUAUACAACCUACUACCACA,0.584 ± 0.071
5,GGAGACCUAACUAUAGAACCUAGUACCUCA,0.026 ± 0.0076
6,GGACUGGAUACUAUACUACCUACUACCUCA,1.44 ± 0.12
7,GGUGUGGAUACUAUUCAACCUACUACCUCA,1.78 ± 0.12
8,CCUCUGGAUACUAUACAACCUUCUACCUGA,0.275 ± 0.067
9,GCUCUCGAUUCUAUACAACCUACUACCUCA,2.09 ± 0.12
10,GGUCUGGAUACUAUACAAACCUACUACCUCA,0.00621 ± 0.0028
11,GGAGAGGAUACUAUACAACCAACUACCUGA,0.0617 ± 0.0077
12,GGUCCGGAUACUAUACAACCUACUACCUCA,1.76 ± 0.11
13,GGACUGGAUACUUUAGAACCUACUACCUCA,0.509 ± 0.047
14,GGAGUCGAUACUAUACAACCUACUACCUGA,0.476 ± 0.051
15,GGAGACCAUACUAUACAACGUACUACCACA,0.68 ± 0.059
16,GGAGACCAUACUAUACAACCUACGACCUCA,0.921 ± 0.059
17,GGAGAGGAUACUAUAGAACGUACUACCUCA,0.107 ± 0.017
18,GGUCUGGAUACUAAUCAACCUACUACCUCA,1.74 ± 0.14
19,GGAGUGGAUACUAUACAUCCUACUACGUCA,0.0715 ± 0.01
20,GGAGAGGAUACUAAACAACCUACUACGUCA,0.279 ± 0.022
